Values come from read counts of a selection and are noisy.
tested on: NB7; test: fold depletion of shRNA, plasmid library share / infected cells without Dox share (9 days) (ratio); higher = more depleted after infection (more toxic, leaky expression from a Tet-inducible vector; NB7 is a neuroblastoma line without caspase-8); settings: shRNA pool: CD95L ORF + CD95L 3'UTR + Venus libraries
Protocol: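 Pooled lethality screen in NB7 neuroblastoma cells infected with Dox-inducible pTIP shRNA libraries. The libraries tile every 21-mer of the Venus, CD95L or CD95 ORF / 3'UTR; each hairpin is the 21-nt sense sequence + CTCGAG loop + antisense. Cells were cultured 9 days with or without 100 ng/ml Dox. shRNA representation was measured by deep sequencing of the genomic inserts, normalised to the total reads per subpool and averaged over technical replicates. Fold depletion is the plasmid library share / infected cells without Dox share (mean of 2 biological replicates), and the -Dox/+Dox share ratio is the mean of 4 replicate pairings; higher values mean more depletion (toxicity).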
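Also: shRNA barcodes quantified by deep sequencing of PCR amplicons from cellular DNA, counts expressed as percent of each subpool, ratio averaged over two biological duplicates.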

| Sequence | fold depletion of shRNA |
| --- | --- |
| AACCAAGTGGACCTTGAGACC | 1.56 |
| AACCACAGCACAGGCCTGTGT | 0.638 |
| AACCACTACCTGAGCTACCAG | 2.62 |
| AACCGCATCGAGCTGAAGGGC | 1.93 |
| AACCTCTGTGCCCAGAAGGCC | 23.8 |
| AACCTGCCCCTGAGCCACAAG | 6.43 |
| AACGAGAAGCGCGATCACATG | 2.45 |
| AACGGCATCAAGGCCAACTTC | 2.02 |
| AACGGCCACAAGTTCAGCGTG | 1.28 |
| AACGTATCTGAGCTCTCTCTG | 2.03 |
| AACGTCTATATCACCGCCGAC | 1.37 |
| AACTAACAGATAAGCAAGAGA | 1.12 |
| AACTACAACAGCCACAACGTC | 0.878 |
| AACTACAAGACCCGCGCCGAG | 1.67 |
| AACTCAAGGTCCATGCCTCTG | 4.34 |
| AACTCACCTAATGTTTATGAG | 0.962 |
| AACTCACCTCTCAAGGTGGGC | 1.69 |
| AACTCTAAGTATCCCCAGGAT | 1.77 |
| AACTCTAATAGTGCTTAAAAA | 0.445 |
| AACTCTGGGCTGCCATGTGAA | 3.24 |
| AACTGGGCTGTACTTTGTATA | 0.751 |
| AACTTCAAGATCCGCCACAAC | 1.32 |
| AAGAACATAGAACTCTGGGCT | 1.32 |

| Sequence | fold depletion of shRNA |
| --- | --- |
| AAGAACGGCATCAAGGCCAAC | 1.26 |
| AAGAAGACATGAACCAAGTGG | 1.51 |
| AAGAAGAGAGGGAACCACAGC | 3.61 |
| AAGACACCTATGGAATTGTCC | 1.41 |
| AAGACATGAACCAAGTGGACC | 2.06 |
| AAGACCCCAACGAGAAGCGCG | 0.472 |
| AAGACCCGCGCCGAGGTGAAG | 0.656 |
| AAGACTAGAGGCTTGCATAAT | 1.08 |
| AAGAGAAGCACTTTGGGATTC | 3.55 |
| AAGAGAGAATGTAGATATTGT | 0.595 |
| AAGAGAGATGTTTTGGGGACT | 1.17 |
| AAGAGAGGGAACCACAGCACA | 0.558 |
| AAGAGGCCAATGCCCCACTGG | 1.3 |
| AAGAGGCTGAAAGAGGCCAAT | 3.67 |
| AAGAGGGAGAAGCATGAAAAA | 0.866 |
| AAGATCCGCCACAACATCGAG | 0.791 |
| AAGATGATGAGCTACTGCACT | 1.96 |
| AAGATTTTGAATGCTTCCTGA | 1.83 |
| AAGCAAATAGGCCACCCCAGT | 1.04 |
| AAGCAAGAGAGATGTTTTGGG | 0.956 |
| AAGCACTTTGGGATTCTTTCC | 1.27 |
| AAGCAGCTACCAGGTGTTCTA | 3.12 |
| AAGCGCGATCACATGGTCCTG | 0.986 |

| Sequence | fold depletion of shRNA |
| --- | --- |
| AAGCTAAAGAGGCTGAAAGAG | 2.31 |
| AAGCTGATCTGCACCACCGGC | 1.36 |
| AAGCTGCCCGTGCCCTGGCCC | 0.76 |
| AAGGAAGACTAGAGGCTTGCA | 0.911 |
| AAGGACACCTTTTAACTCACC | 2.18 |
| AAGGACGACGGCAACTACAAG | 1.96 |
| AAGGAGCTGAGGAAAGTGGCC | 8.04 |
| AAGGAGCTGGCAGAACTCCGA | 3.72 |
| AAGGAGGACGGCAACATCCTG | 1.8 |
| AAGGAGGCCACCACCACCACC | 24 |
| AAGGCCAACTTCAAGATCCGC | 1.19 |
| AAGGCTACGTCCAGGAGCGCA | 2.06 |
| AAGGGATGGAAAAGGAAGACT | 0.873 |
| AAGGGCATCGACTTCAAGGAG | 1.7 |
| AAGGGCGAGGAGCTGTTCACC | 0.559 |
| AAGGGGGACTGTCTTTCAGAT | 0.826 |
| AAGGTCCATGCCTCTGGAATG | 2.9 |
| AAGGTCTACATGAGGAACTCT | 1.11 |
| AAGGTGGGCCTTGCTACCTCA | 1.19 |
| AAGTAAGAAGACATGAACCAA | 1.57 |
| AAGTACATATTAGGAAAATAT | 0.777 |

same assay, conditions: shRNA pool: CD95 ORF + CD95 3'UTR + Venus libraries

| Sequence | fold depletion of shRNA |
| --- | --- |
| AACCACCTAAAGAACTTCCAT | 1.37 |
| AACCACTACCTGAGCTACCAG | 2.43 |
| AACCAGACTGCGTGCCCTGCC | 2.05 |
| AACCCATGTTTGCAATCAAAG | 2.15 |
| AACCCCACTCTATGAATCAAT | 1.42 |
| AACCGCATCGAGCTGAAGGGC | 1.15 |
| AACCTGCTACAAATGGCAGCT | 3.22 |
| AACGGCATCAAGGCCAACTTC | 1.02 |
| AACGGCCACAAGTTCAGCGTG | 0.9 |
| AACGTCTATATCACCGCCGAC | 2.22 |
| AACTACAACAGCCACAACGTC | 0.778 |
| AACTACAAGACCCGCGCCGAG | 1.88 |
| AACTACCTACTTCTTTCTCAG | 1.55 |
| AACTCCAAGGGATTGGAATTG | 1.67 |
| AACTCTACTGTATGTGAACAC | 1.24 |
| AACTCTGAGAAGATCATATTT | 1.22 |
| AACTGAAGCAGATACCTGGAA | 1.66 |
| AACTGCACCCGGACCCAGAAT | 1.11 |
| AACTGCTCTCAGAGAAAGTAG | 1.61 |
| AACTGCTTCGTAATTGGCATC | 1.72 |
| AACTGTGAAGATAGTTATAAA | 0.981 |
| AACTTCAAGATCCGCCACAAC | 1.35 |
| AACTTCAGAAATGAAATCCAA | 1.13 |
| AACTTCATCAAGAGTAAATGC | 1.09 |

| Sequence | fold depletion of shRNA |
| --- | --- |
| AACTTCATGGAAAGAAAGAAG | 0.864 |
| AACTTCCATTTATGGAGGATT | 1.36 |
| AACTTGGAAGGCCTGCATCAT | 2.57 |
| AACTTTAAATCCTGAAACAGT | 1.12 |
| AACTTTGTTTATAACTCTGAG | 1.34 |
| AACTTTTTTTGTAACTCTACT | 0.589 |
| AAGAAAGAAGCGTATGACACA | 2.69 |
| AAGAAATAATATTTATATTTC | 1.86 |
| AAGAACGGCATCAAGGCCAAC | 0.712 |
| AAGAACTTCCATTTATGGAGG | 1.24 |
| AAGAAGCGTATGACACATTGA | 0.549 |
| AAGAAGCTATGACCTTTTGCT | 1.81 |
| AAGAAGGGAAGGAGTACACAG | 0.655 |
| AAGAATGACAATGTCCAAGAC | 2.58 |
| AAGAATGGTGTCAATGAAGCC | 0.629 |
| AAGACACAGCAGAACAGAAAG | 1.14 |
| AAGACCCCAACGAGAAGCGCG | 0.639 |
| AAGACCCGCGCCGAGGTGAAG | 1.3 |
| AAGACCTTTGCACAGTTTATT | 2.15 |
| AAGACTGCCCTTAGAAATTCT | 5.1 |
| AAGACTGTTACTACAGTTGAG | 0.874 |
| AAGAGAAAGGAAGTACAGAAA | 0.974 |
| AAGAGCCAACATATTTGTAGA | 0.907 |
| AAGATAGTTATAAACTGAAGC | 0.895 |

| Sequence | fold depletion of shRNA |
| --- | --- |
| AAGATCATATTTATGTAAAGT | 0.972 |
| AAGATCCGCCACAACATCGAG | 0.804 |
| AAGATCTCAAAAAAGCCAATC | 1.27 |
| AAGATGATAAAATAGATTCTT | 0.883 |
| AAGATGTAGATTGTGTGATGA | 1.86 |
| AAGATTAAGATTATGCTCTGG | 1.46 |
| AAGATTCTCCTTACTACTATC | 1.26 |
| AAGATTCTTAATAGCTGGCTG | 1.6 |
| AAGATTTAAGATTCTCCTTAC | 1.06 |
| AAGCACAGAAAGGAAAACCAA | 1.5 |
| AAGCAGAAGAACGGCATCAAG | 2.37 |
| AAGCAGCACGACTTCTTCAAG | 3.72 |
| AAGCCAAAATAGATGAGATCA | 1.96 |
| AAGCCAATCTTTGTACTCTTG | 1.2 |
| AAGCCCATTTTTCTTCCAAAT | 1.35 |
| AAGCCCTGTCCTCCAGGTGAA | 0.492 |
| AAGCGCGATCACATGGTCCTG | 1.02 |
| AAGCGTATGACACATTGATTA | 1.57 |
| AAGCTAGGGACTGCACAGTCA | 1.82 |
| AAGCTATGACCTTTTGCTGAA | 1.28 |
| AAGCTGACCCTGAAGCTGATC | 2.29 |
| AAGCTGATCTGCACCACCGGC | 1.08 |
| AAGCTGCCCGTGCCCTGGCCC | 0.477 |
| AAGCTGGAGTACAACTACAAC | 1.69 |

| Sequence | fold depletion of shRNA |
| --- | --- |
| AAGGAAAACCAAGGTTCTCAT | 3.08 |
| AAGGAAAGCTAGGGACTGCAC | 2.28 |
| AAGGAAGTACAGAAAACATGC | 1.17 |
| AAGGAATGCACACTCACCAGC | 0.973 |
| AAGGACATGGCTTAGAAGTGG | 0.858 |
| AAGGACATTACTAGTGACTCA | 2.58 |
| AAGGACGACGGCAACTACAAG | 1.41 |
| AAGGAGGACGGCAACATCCTG | 1.24 |
| AAGGATGTTTAAAATCTAGTT | 0.872 |
| AAGGCAAGACTGCCCTTAGAA | 3.38 |
| AAGGCCAACTTCAAGATCCGC | 1.08 |
| AAGGCCTGCATCATGATGGCC | 0.503 |
| AAGGCTACGTCCAGGAGCGCA | 1.36 |
| AAGGCTCTACCTCAAAGACCT | 2.52 |
| AAGGCTTTGTTCGAAAGAATG | 1.24 |
| AAGGGAAGGAGTACACAGACA | 0.939 |
| AAGGGATTGGAATTGAGGAAG | 1.29 |
| AAGGGCATCGACTTCAAGGAG | 0.634 |
| AAGGGCGAGGAGCTGTTCACC | 0.961 |
| AAGGTTCTCATGAATCTCCAA | 3.95 |
| AAGTACAGAAAACATGCAGAA | 1.93 |
| AAGTACCCAAATAGGAGTGTA | 2.21 |

Source: the supplement of paper PMC5655136
